Source: PubChem BioAssay AID1745853 (National Center for Advancing Translational Sciences (NCATS), 2022)
The list shows a part of the results. These are further read-outs of the screen, such as a control signal, another cell line or another target. No call is given for them.

What was measured:
Assay in all cases: Primary Screen for Target Class Profiling of Small Molecule Inhibitors of Methyltransferases
[1] = target: Glycine N-methyltransferase (Homo sapiens) (UniProt Q14749); conditions: purified enzyme, MTase-Glo SAH luminescence; measured here: GNMT inhibition; at 40 µM; stronger effect = lower value
How it was run: (§1)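 Each enzyme was assayed with SAM and its substrate. SAH formation detected by MTase-Glo luminescence; single-point 40 uM screen[…].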

[2] = target: Histamine N-methyltransferase (Homo sapiens) (UniProt P50135); conditions: purified enzyme, MTase-Glo SAH luminescence; measured here: HNMT inhibition; at 40 µM; stronger effect = lower value
How it was run: as §1

[3] = target: Guanidinoacetate N-methyltransferase (Homo sapiens) (UniProt Q14353); conditions: purified enzyme, MTase-Glo SAH luminescence; measured here: GAMT inhibition; at 40 µM; stronger effect = lower value
How it was run: as §1

[4] = target: Nicotinamide N-methyltransferase (Homo sapiens) (UniProt P40261); conditions: purified enzyme, MTase-Glo SAH luminescence; measured here: NNMT inhibition; at 40 µM; stronger effect = lower value
How it was run: as §1

[5] = target: Phenylethanolamine N-methyltransferase (Homo sapiens) (UniProt P11086); conditions: purified enzyme, MTase-Glo SAH luminescence; measured here: PNMT inhibition; at 40 µM; stronger effect = lower value
How it was run: as §1
On the % scale 0 is the no-effect control and ±100 the full control effect.

Row | SMILES | activity change, negative = inhibition [1] [%] | activity change, negative = inhibition [2] [%] | activity change, negative = inhibition [3] [%] | activity change, negative = inhibition [4] [%] | activity change, negative = inhibition [5] [%]
1 | Cc1ccc(-n2nccn2)c(C(=O)N2CCN(c3nc4cc(Cl)ccc4o3)CCC2C)c1 (configuration not stated) | -3.56 | 10.5 |  |  | 
2 | Cc1ccccc1CN1CCC(N2CCC(n3c(=O)[nH]c4ccccc43)CC2)CC1 | -5.22 | -8.46 | 8.21 | -11 | -3.65
3 | O=C1Nc2ccccc2C12CCN(Cc1cccnc1)C2 (configuration not stated) | -18.5 | -2.26 | -1.05 | -10.1 | -2.89
4 | CC1CCN(CC2CCCCCN2C(=O)Cc2ccccc2)CC1 (configuration not stated) | -7.24 | -5.33 | -9.34 | -18.5 | -14.3
5 | COc1ccc(C2c3cccn3-c3ccccc3CN2C(=O)Nc2ccc(C)cc2)cc1OC (configuration not stated) | 13.6 | 8.68 | 2.84 | 8.45 | 10.7
6 | O=C(NCCN1CCC2(CC1)C(=O)NCN2c1cccc(F)c1)c1ccc2ccccc2c1 | -23.1 | -46.6 | 0.507 | -28.9 | -13.9
7 | Cc1cc(C)n(CCC(=O)N2[C@H]3CC[C@@H]2c2cnc(-c4ccccc4)nc2C3)n1 | -1.62 | 0.912 | -3.01 | 1.43 | 1.7
8 | CCOC(=O)CNC(=O)N1Cc2ccccc2-n2cccc2C1c1ccc(C)cc1 (configuration not stated) | 5.99 | -1.04 | 4.01 | -6.34 | 1.15
9 | Cc1ccccc1C1c2cccn2-c2ccccc2CN1C(=O)Nc1cccc(Cl)c1 (configuration not stated) | 6.8 | 3.4 | 1.94 | 0.955 | 0.862
10 | CCCN(CCC)C1CCc2cccc(O)c2C1 (configuration not stated) | 8.43 | 10.3 | 15.9 | -3.66 | 5.8
11 | c1cncc(OC[C@@H]2CCN2)c1 | -4.98 | -2.25 | -13.7 | -23.4 | -15.6
12 | CCCN1CCc2cccc3c2[C@H]1Cc1ccc(O)c(O)c1-3 | -82.5 | -13.1 | 9.17 | -10.6 | 5.3
13 | NC(N)=NOCCC(N)C(=O)O (configuration not stated) | 7.41 | 10.5 | 10.2 | -6.59 | 1.78
14 | Cc1nccc2c1[nH]c1ccccc12 | -9.33 | -12.5 | 7.02 | -19.1 | 6.62
15 | c1cnc2c(c1)NC1(CCCNC1)C(=NC1CCCC1)N2 (configuration not stated) | -9.9 | -28.5 | -2.63 | -18.8 | -0.811
16 | CC(C)[C@@H](CN1CC[C@@](C)(c2cccc(O)c2)[C@@H](C)C1)NC(=O)[C@H]1Cc2ccc(O)cc2CN1 | 4.46 | -12 | 8.27 | -12.1 | -0.809
